Reference: PubChem BioAssay (Tox21)
Several values for one entry are separate records, joined by “and”; a condition that tells them apart may be missing. Equal entries are not always repeated. This list was built around the results that the source calls inconclusive (neither active nor inactive); the mix of calls is not that of the screen. Where the call is inconclusive, the potency comes from a doubtful curve fit. The source holds several records for some structures; these can differ, active in one and inactive in another. Activity calls are given as the source filed them. Calls follow the shape of the dose curve; as a rule, active = well fitted cell-killing curve with a large enough effect in the repeat runs; inconclusive = weak or mixed curves, or effect the other way; inactive = flat fitted curve, though single readings scatter.

Experiment: qHTS RealTime-Glo MT Cell Viability Assay in HepG2 cells - 0 hour (AID 1224889); also: nearly all actives have a fitted effect of over 50% in size
Details: RealTime-Glo luminescence; series mostly up to 76.8 µM; activity change, negative = cytotoxicity: at the top concentration
Excerpt: U.S. Tox21 Program National Center for Advancing Translational Sciences [NCATS] NIH Chemical Genomics Center [NCGC] U.S. Environmental Protection Agency [EPA] National Institutes of Environmental Health Sciences [NIEHS] National Toxicology Program [NTP] U.S. Food and Drug Administration [FDA] Tox21 Assay Overview: Measure of cell viability is critical in the cell-base assay. Analysis of cell viability is necessary for the characterization of cell responses to cytotoxic drugs and environmental stress. A RealTime-Glo MT Cell Viability Assay to monitor cell viability in real time of continues cell culture during 40 hours of compound treatment was used to screen Tox21 10K library compounds in HepG2 cells. The RealTime-Glo MT Cell Viability Assay is a nonlytic, homogeneous, bioluminescent method to measure cell viability in real time using a simple, plate-based method. The assay involves adding NanoLuc luciferase and a cell-permeant prosubstrate to cells in culture. Viable cells reduce the proprietary prosubstrate to generate a substrate for NanoLuc luciferase. This substrate diffuses from cells into the surrounding culture medium, where it is rapidly used by the NanoLuc Enzyme to produce a luminescent signal. The signal correlates with the number of viable cells, making the assay well suited for cytotoxicity studies.
Tox21 Assay Protocol Summary: The mixture of HepG2 cell suspension and reagents were dispensed at 600cells/6 ul/well in 1536-well tissue culture treated black solid bottom plates using a Multidrop dispenser. After the assay plates were incubated at a 37 C/5% CO2 incubator for 5 hours, 23 nL of compounds dissolved in DMSO, positive and negative controls was transferred to the assay plate by a pintool work station. The plates were incubated at 37 C for 40 hours. The luminescence intensity were measured at 0h, 8h, 16h, 24h, 32h and 40h time points using ViewLux plate reader during compound treatment.
% is scaled to controls: 0 for no effect and ±100 for the full control effect; potency is read from the fitted curve at half-maximal effect; tags tell the direction and shape of the fitted curve.

Row | SMILES | Potency | activity change, negative = cytotoxicity
1 | Nc1ccc(Cc2ccc(N)c(Cl)c2)cc1Cl | inconclusive: 47.3 µM [cytotoxic, partial curve, poor fit] | –
2 | CCOC(=O)C1OC1(C)c1ccccc1 (stereo not given) | inactive | –
3 | O.O.O.O.O.O.O.O=S(=O)([O-])[O-].[Co+2] | inconclusive: 22 µM [cytotoxic, partial curve] | –
4 | OC(Cc1ccccc1Cl)(Cn1[nH]cnc1=S)C1(Cl)CC1 (stereo not given) | – | inactive: -3.18%
5 | Nc1ccc(N=Nc2ccc(-c3ccc(N=Nc4c(S(=O)(=O)O)cc5cc(S(=O)(=O)O)c(N=Nc6ccccc6)c(O)c5c4N)cc3)cc2)c(N)c1 | inconclusive: 35.4 µM [cytotoxic, partial curve, poor fit] | –
6 | C#C[C@]1(O)CC[C@H]2[C@@H]3CCC4=CC(=O)CC[C@]4(C)[C@H]3CC[C@@]21C | inconclusive: 4.36 µM [cytotoxic, full curve] and inconclusive: 7.56 µM [cytotoxic, partial curve, poor fit] | –
7 | CC(C)(OO)c1ccccc1 | inconclusive: 43.6 µM [cytotoxic, partial curve, poor fit] | –
8 | Nc1ccc(-c2ccc(N)cc2)cc1 | inactive | –
9 | CC(=O)[O-].CC(=O)[O-].[Hg+2] | active: 30.9 µM | –
10 | O.O.O.O.O.O.O=S(=O)([O-])[O-].[Ni+2] | inconclusive: 18.7 µM [cytotoxic, partial curve, poor fit] | –
11 | Cc1cc(C)c(C(=O)P(=O)(c2ccccc2)c2ccccc2)c(C)c1 | inconclusive: 49 µM [cytotoxic, partial curve] | –
12 | CCCCn1cc[n+](C)c1 | inactive | –
13 | CC(C)(CCl)C(=O)Cl | – | inactive: 2.16%
14 | IC(I)=C(I)I | inconclusive: 8.71 µM [cytotoxic, partial curve] | –
15 | N#CC(CCc1ccc(Cl)cc1)(Cn1cncn1)c1ccccc1 (stereo not given) | inconclusive: 24.5 µM [cytotoxic, partial curve] | –
16 | II | inconclusive: 43.6 µM [cytotoxic, partial curve] | –
17 | CCC1(CC)C(=O)N=C(O)NC1=O | – | inactive: -6.54%
18 | O=C(O)c1ccccc1O | inconclusive: 26.8 µM [rising, partial curve, poor fit] | –
19 | C=CCOC(C)=O | active: 12.1 µM | –
20 | O=S(=O)(O)C(F)(F)C(F)(F)C(F)(F)C(F)(F)C(F)(F)C(F)(F)C(F)(F)C(F)(F)F | inconclusive: 58.7 µM [cytotoxic, single point] and inconclusive: 61.6 µM [cytotoxic, single point] and inconclusive: 38.9 µM [cytotoxic, partial curve] | –

Row | SMILES | Potency | activity change, negative = cytotoxicity
21 | C=CC[C@]1(O)CC[C@H]2[C@@H]3CCC4=CC(=O)CCC4=C3C=C[C@@]21C | inconclusive: 30.1 µM [cytotoxic, single point] | –
22 | Cc1cc2c3c(c1)C(c1ccccc1)=N[C@@H](NC(=O)c1ccncc1)C(=O)N3CC2 | inconclusive: 54.9 µM [cytotoxic, partial curve, poor fit] | –
23 | CC(C)(C)c1cc([N+](=O)[O-])cc([N+](=O)[O-])c1O | inconclusive: 48.9 µM [cytotoxic, single point] | –
24 | C[C@]12CC[C@H]3[C@@H](CCC4=CC(=O)CC[C@@H]43)[C@@H]1CC[C@@H]2OC(=O)CCc1ccco1 | – | inactive: -12.3% [at 35.3 µM]
25 | Cc1ccc(-c2c(Cl)nc(C#N)n2S(=O)(=O)N(C)C)cc1 | inconclusive: 24.5 µM [cytotoxic, partial curve, poor fit] | –
26 | CC1COC(Cn2cncn2)(c2ccc(Oc3ccc(Cl)cc3)cc2Cl)O1 (stereo not given) | inconclusive: 49 µM [cytotoxic, partial curve, poor fit] | –
27 | CCNc1nc(NC(C)(C)C)nc(SC)n1 | inactive | –
28 | CCCCC(O)(Cn1cncn1)c1ccc(Cl)cc1Cl (stereo not given) | active: 24.5 µM | –
29 | CCCCNC(=O)OCC#CI | inconclusive: 21.8 µM [cytotoxic, partial curve] and inconclusive: 17.4 µM [cytotoxic, full curve] | –
30 | CCCSP(=O)(OCC)SCCC | inconclusive: 25.4 µM [cytotoxic, partial curve] | –
31 | CCOP(=S)(OCC)Oc1ccc2c(C)c(Cl)c(=O)oc2c1 | inconclusive: 8.71 µM [cytotoxic, partial curve] | –
32 | C[C@]12CCC(=O)C(O)=C1CC[C@@H]1[C@@H]2CC[C@]2(C)C(=O)CC[C@@H]12 | active: 21.9 µM | –
33 | CC(C)c1c(CN(C)C(C)Cc2ccccc2)n(C)n(-c2ccccc2)c1=O (stereo not given) | inconclusive: 23.9 µM [cytotoxic, partial curve, poor fit] | –
34 | CCOc1nc(F)cc2nc(S(=O)(=O)Nc3c(Cl)cccc3Cl)nn12 | inconclusive: 54.9 µM [cytotoxic, partial curve, poor fit] | –
35 | C[C@]12CCC(=O)C=C1CC[C@@H]1[C@@H]2CC[C@]2(C)C(=O)CC[C@@H]12 | active: 34.1 µM and active: 21.9 µM | –
36 | CC(C)(Cl)[N+](=O)[O-] | active: 6.19 µM | –
37 | Oc1c(I)cc(I)cc1I | – | inactive: 1.49%
38 | CCC(OC(C)=O)C(CC(C)NC)(c1ccccc1)c1ccccc1 (stereo not given) | inconclusive: 24.7 µM [rising, partial curve] | –
39 | N#C/C=C/C#N | inconclusive: 40.7 µM [cytotoxic, partial curve] | –
40 | OC(c1ccc(Cl)cc1)(c1cncnc1)c1ccccc1Cl (stereo not given) | inconclusive: 54.9 µM [cytotoxic, single point] | –
